Laboratory results taken from the supplement of paper PMC4723716.
± gives the uncertainty stated by the source. Whole data set: some 9,900 compounds, median “viability index relative to DMSO control” near 1, cut for the lowest 2% near 0.85. Some of the results follow.

Tested on: Plasmodium falciparum NF54 stage V gametocytes
Assay: viability index relative to DMSO control (fraction); higher = less gametocyte killing
Conditions: 2.5 µM, incubation time: 72 h
In short: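 Stage V gametocytes of P. falciparum NF54 were held in serum-free screening medium at 0.75% gametocytemia and 1.25% hematocrit, 10 µl per well of a 1,536-well plate, and exposed to compound at 2.5 µM for 72 hr at 37°C under low oxygen. A 3 µl mix of 2.5 µM MitoTracker Red CMXRos with 0.13% saponin was then added for one to two hours, after which one field per well was imaged and red particles of 20–70 µm2 were counted. The viability index equals this count divided by the plate mean from wells given solvent alone.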

[1] = library set: Broad Institute DOS

Question: With CN1C(=O)c2cc(NS(=O)(=O)c3cccc(F)c3)ccc2OC[C@@H]2O[C@H](CC(=O)N3CCc4ccccc4C3)CC[C@H]21 as the compound, how does the viability index [1] read?
Answer: 0.969 ± 0.12

Question: For N#C[C@@H]1[C@H](c2ccccc2C2=CCCC2)[C@@H](CO)N1C(=O)C1CCOCC1, which viability index [1] is on record?
Answer: 1.11 ± 0.029

Question: For CC(=O)N1CC[C@H]2[C@H](CO)Nc3ccc(-c4ccccc4)cc3[C@H]21, which viability index [1] is on record?
Answer: 1.02 ± 0.068

Question: CO[C@@H]1CC[C@@H]2CCOc3ccc(C#N)cc3C(=O)N(C)[C@@H](C)C(=O)N(C)C[C@H]1O2 was tested. Which viability index [1] did it give?
Answer: 1.1 ± 0.018

Question: With COC(=O)C[C@H]1CC[C@H]2[C@H](COc3ccc(NS(=O)(=O)c4ccc(C)cc4)cc3C(=O)N2C)O1 as the compound, how does the viability index [1] read?
Answer: 1.17 ± 0.041

Question: COCC(=O)Nc1ccc2c(c1)OC[C@H](C)N(C)C[C@H](C)[C@@H](OC)CN(C)C2=O was tested. Which viability index [1] did it give?
Answer: 1.04 ± 0.065

Question: How did the viability index [1] turn out when COc1ccc2c3c([nH]c2c1)[C@@H](CO)N(Cc1ccccc1Cl)C[C@]31CN(C1)C(=O)C1CC1 was run?
Answer: 0.962 ± 0.029

Question: For COCCNC(=O)C[C@@H]1CC[C@@H]2[C@H](COC[C@H](O)CN2S(=O)(=O)c2ccccc2F)O1, which viability index [1] is on record?
Answer: 1 ± 0.04

Question: Which viability index [1] does the source give for CC(C)NC(=O)N1[C@H](CO)[C@@H]2c3ccccc3NC[C@@H]21 here?
Answer: 1.01 ± 0.045

Question: With CN1C(=O)c2cc(NS(C)(=O)=O)ccc2OC[C@H]2O[C@H](CC(=O)N3CCOCC3)CC[C@H]21 as the compound, how does the viability index [1] read?
Answer: 1.05 ± 0.065

Question: How did the viability index [1] turn out when CNC[C@@H]1OCCCC[C@H](C)Oc2ccc(NC(=O)Nc3ccc(OC)cc3)cc2C(=O)N([C@H](C)CO)C[C@H]1C was run?
Answer: 1.05 ± 0.029

Question: For N#C[C@@H]1[C@H](c2ccc(-c3cccc(F)c3)cc2)[C@H](CO)N1C(=O)CN1CCOCC1, which viability index [1] is on record?
Answer: 1.05 ± 0.025

Question: With COc1ccc(-c2ccc3c(c2)[C@@H]2[C@@H](CCN2C(=O)c2cccc(F)c2)[C@@H](CO)N3)cc1 as the compound, how does the viability index [1] read?
Answer: 0.996 ± 0.08

Question: With C[C@@H]1CN([C@@H](C)CO)C(=O)c2cc(N(C)C)ccc2O[C@@H](C)CCCCO[C@@H]1CN(C)C(=O)NC1CCCCC1 as the compound, how does the viability index [1] read?
Answer: 1.11 ± 0.03

Question: CNC[C@@H]1Oc2cc(C3=CCCC3)ccc2S(=O)(=O)N([C@@H](C)CO)C[C@H]1C was tested. Which viability index [1] did it give?
Answer: 0.939 ± 0.038

Question: For O=C(C[C@@H]1CC[C@@H]2[C@H](COC[C@H](O)CN2CCc2ccccc2)O1)NCCCN1CCOCC1, which viability index [1] is on record?
Answer: 0.996 ± 0.081

Question: Which viability index [1] does the source give for C[C@H](O)C#Cc1ccc([C@@H]2[C@@H](CO)N3CCCCN(C(=O)c4ccc5c(c4)OCO5)C[C@H]23)cc1 here?
Answer: 1.04 ± 0.093

Question: How did the viability index (library set: Broad Institute Blood Stage) turn out when O=C(c1ccccc1F)N1CC(=O)N2[C@H](C1)[C@@H](c1ccc(-c3ccc(F)cc3)cc1)[C@@H]2CO was run?
Answer: 0.86 ± 0.04

Question: Which viability index [1] does the source give for CS(=O)(=O)N1CC(=O)N2[C@H](C1)[C@H](c1ccc(Br)cc1)[C@@H]2CO here?
Answer: 0.958 ± 0.022

Question: How did the viability index [1] turn out when O=C(NCC[C@@H]1CC[C@H](NS(=O)(=O)c2ccc(F)cc2)[C@H](CO)O1)c1ccc2c(c1)OCO2 was run?
Answer: 0.955 ± 0.046

Question: For C[C@H](CO)N1C[C@H](C)[C@@H](CN(C)S(=O)(=O)c2cn(C)cn2)OCCCC[C@H](C)Oc2ccc(N(C)C)cc2C1=O, which viability index [1] is on record?
Answer: 1.03 ± 0.031
